From publication PMC4336329 (PLoS ONE, 2015) come the findings set out here.

Out of some 310,000 compounds screened, about 14,000 (4.5%) showed an effect of 50% or more. Effects have a minus sign here. The list shows a part of the results.
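Also: peak tail current of the secondary pulse compared with the same well before compound.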

human ether-à-go-go-related gene (hERG) potassium channel, sequence (Q12809 whole entry, looked up): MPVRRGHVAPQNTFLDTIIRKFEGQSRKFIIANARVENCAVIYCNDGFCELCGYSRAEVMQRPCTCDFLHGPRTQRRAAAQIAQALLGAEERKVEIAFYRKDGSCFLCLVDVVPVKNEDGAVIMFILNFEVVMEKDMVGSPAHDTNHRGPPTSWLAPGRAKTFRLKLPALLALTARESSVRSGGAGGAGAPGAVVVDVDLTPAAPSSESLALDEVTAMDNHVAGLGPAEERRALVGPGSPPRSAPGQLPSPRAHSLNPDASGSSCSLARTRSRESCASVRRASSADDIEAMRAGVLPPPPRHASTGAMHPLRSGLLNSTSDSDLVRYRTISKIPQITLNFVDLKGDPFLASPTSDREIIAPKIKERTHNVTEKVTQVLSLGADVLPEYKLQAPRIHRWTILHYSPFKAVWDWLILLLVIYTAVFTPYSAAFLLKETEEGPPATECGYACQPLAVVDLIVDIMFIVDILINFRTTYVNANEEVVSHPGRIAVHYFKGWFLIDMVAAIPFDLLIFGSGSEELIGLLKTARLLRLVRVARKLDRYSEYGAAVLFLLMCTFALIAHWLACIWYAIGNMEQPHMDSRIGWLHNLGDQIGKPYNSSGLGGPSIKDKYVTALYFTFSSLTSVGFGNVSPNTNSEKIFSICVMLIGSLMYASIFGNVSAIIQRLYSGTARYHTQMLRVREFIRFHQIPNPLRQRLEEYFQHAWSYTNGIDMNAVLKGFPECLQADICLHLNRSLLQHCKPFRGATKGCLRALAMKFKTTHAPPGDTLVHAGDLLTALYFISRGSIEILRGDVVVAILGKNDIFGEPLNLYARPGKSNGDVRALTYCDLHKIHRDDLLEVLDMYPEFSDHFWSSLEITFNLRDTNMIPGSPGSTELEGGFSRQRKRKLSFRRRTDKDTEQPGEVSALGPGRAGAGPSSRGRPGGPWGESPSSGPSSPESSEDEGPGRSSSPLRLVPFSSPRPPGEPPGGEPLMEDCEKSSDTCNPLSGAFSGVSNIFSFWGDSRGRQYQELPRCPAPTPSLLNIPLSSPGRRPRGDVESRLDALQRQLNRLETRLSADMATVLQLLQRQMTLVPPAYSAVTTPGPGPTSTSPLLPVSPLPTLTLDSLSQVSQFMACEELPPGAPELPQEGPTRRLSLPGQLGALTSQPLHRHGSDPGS

The test concerns the target human ether-à-go-go-related gene (hERG) potassium channel (human, UniProt Q12809). In words: primary screen, population patch clamp on CHO cells stably expressing hERG.
With `C1=CC2C3C=CC(C3)C2C1` (centres unmarked), the “hERG current change (%, negative = inhibition) at 10uM” value is given as 12.1%. With `CCC(Sc1nc(N)c(NC(=O)c2ccc(Br)o2)c(=O)[nH]1)C(=O)O` (centres unmarked) the figure was 15.4%. With `CC1=NNC(=O)C1Cc1ccccc1C` (centres unmarked) the figure was 30.9%; with `CCS(=O)(=O)NC(C)c1nnc2n1-c1ccc(Br)cc1C(c1ccccc1Cl)=NC2` (centres unmarked), -30.9%; with `Cc1nnc(NC(=O)C2CCCO2)s1` (centres unmarked), 3.17%. With `C(=N\Nc1nc(-c2ccccc2)cs1)/c1ccco1` the figure was -31.7%; with `COc1ccc(C2CC(c3ccccc3)=NN2C(=O)COC(=O)c2nc3nc(C)cc(C)n3n2)cc1` (centres unmarked), -7.01%; with `Cc1cc(C)cc(NC(=O)CSc2nc3ccccc3nc2N2CCCC2)c1`, -40.5%. `Cc1ccccc1OCC(O)Cn1c(N2CCN(c3ccccc3)CC2)nc2c1c(=O)[nH]c(=O)n2C` (centres unmarked): the “hERG current change (%, negative = inhibition) at 10uM” value turned out to be 1.54%.

For the molecule `O=c1[nH]c(Cc2ccccc2Cl)nc2ccccc12`, the “hERG current change (%, negative = inhibition) at 10uM” value is 24.2%.

As for `Cc1cccc(NC(=O)CN2CCN(CC(=O)Nc3cccc(C)c3)CC2)c1`, the “hERG current change (%, negative = inhibition) at 10uM” value is -63.7%. As for `COC(=O)CSc1nnc(-c2ccco2)n1Cc1ccco1`, the “hERG current change (%, negative = inhibition) at 10uM” value is given as -26.8%. Regarding `CCOc1cccc(/C=N/NC(=O)c2ccc3c(c2)OCCO3)c1O`, the “hERG current change (%, negative = inhibition) at 10uM” value was 15.4%. With `NC(=O)N(N)c1nc(N2CCCC2)nc(N2CCCC2)n1` the figure was 15.3%; with `COc1ccc(O)c(CNc2ccccc2F)c1`, 15.8%; with `CCCOC(=O)/C(=C\c1ccc([N+](=O)[O-])o1)NC(=O)c1ccccc1`, -43.3%.

Take `S=c1[nH]ncn1/N=C/c1ccc(Br)cc1`: the “hERG current change (%, negative = inhibition) at 10uM” value amounted to 11.1%. With `O=C(CN1CC(=O)Oc2ccccc21)OCC(=O)c1ccccc1` the figure was 3.85%; with `COc1ccccc1OCC(=O)Nc1c2c(nn1-c1ccc(C)cc1)CS(=O)(=O)C2`, -16.9%; with `O=c1[nH]n(-c2ncnc3c2cnn3-c2ccccc2)c(=O)c2ccccc12`, 3.3%. Consider `CC1CCN(C(=O)CSCC(=O)Nc2nc(-c3cccs3)cs2)CC1`, for which the “hERG current change (%, negative = inhibition) at 10uM” value is given as -20.6%.

Take `Cc1ccc(C(=O)Nc2cc3[nH]c(=O)oc3cc2C)cc1`: the “hERG current change (%, negative = inhibition) at 10uM” value is recorded as 1.6%. With `CCCc1cc(C(=O)Nc2cccc(Cl)c2)no1` the figure was -25.9%; with `CC(C)(C)NC(=O)C(c1ccccc1)N(Cc1ccco1)C(=O)c1csnn1` (centres unmarked), 10.4%. With `COc1cc(-n2ccnc2SC)c(Cl)cc1Cl` the figure was -3.29%; with `CC(=O)Nc1ccc(N=Nc2c(C)[nH]n(C(N)=S)c2=O)cc1`, 19.8%.

Take `O=C(Cc1ccc(F)cc1)NCCc1ccc(F)cc1`: the “hERG current change (%, negative = inhibition) at 10uM” value was -18.5%. With `CCC(=O)n1nc(-c2cccnc2)nc1NCc1cccs1` the figure was 12.8%; with `COc1ccc(/C=C(\C#N)C(=O)OCC(=O)NCc2ccccc2)cc1`, 9.29%; with `Fc1ccccc1CSCc1nc2ccccc2[nH]1`, -5.57%. Consider `CC(=O)Nc1ccc(S(=O)(=O)N(C)CC(=O)NC2CCCC(C)C2C)cc1` (centres unmarked), for which the “hERG current change (%, negative = inhibition) at 10uM” value is -5.36%. With `Cc1ccc(N=C2NC(=O)/C(=C\c3ccco3)S2)cc1` the figure was -7.17%. In the case of `C=CCOc1nc(-c2ccncc2)nc2ccccc12`, the “hERG current change (%, negative = inhibition) at 10uM” value worked out at 3.6%. For `COc1ccc(S(=O)(=O)NCCc2cn3nc(C)c(C)nc3n2)cc1F`, the “hERG current change (%, negative = inhibition) at 10uM” value was 3.38%. For `COc1ccc(N(CC(=O)N2CCN(Cc3ccccc3)CC2)S(=O)(=O)c2ccccc2)cc1` the value was -26.3%. In the case of `O=C(CSc1nnc(Cc2cc(=O)[nH]c(=O)[nH]2)n1-c1ccccc1)N1CCCc2ccccc21`, the “hERG current change (%, negative = inhibition) at 10uM” value is reported as 8.49%. For `COc1ccc(NS(=O)(=O)c2cn(C)c(=O)n(C)c2=O)cc1` the value was -0.328%; for `COc1ccc(OC)c(/C=N/NC(=O)c2ccc3nc[nH]c3c2)c1`, 4.22%; for `COC(=O)CSc1nnc(CNC(=O)c2ccccc2F)n1-c1ccccc1`, 9.62%. With `CCCC(c1nnnn1Cc1ccco1)N1CCN(c2cc(Cl)ccc2C)CC1.Cl` (centres unmarked) the figure was -0.973%. For `O=S(=O)(/C=C/c1ccccc1)N1CCc2ccccc2C1` the value was 21.4%; for `CN(C(=O)COC(=O)CCC(=O)c1ccc(Cl)cc1)c1c(N)n(Cc2ccccc2)c(=O)[nH]c1=O`, -17.7%; for `Cc1cc2occ(CC(=O)N(CCC(C)C)c3c(N)n(Cc4ccccc4)c(=O)[nH]c3=O)c2cc1C`, -8.34%. For the molecule `Cc1c(NC(=O)c2ccccc2NC(=O)COc2ccccc2)cccc1C(=O)O`, the “hERG current change (%, negative = inhibition) at 10uM” value stood at 14.2%. For `CCOC(=O)c1c(NC(=O)CSc2nnc(-c3ccco3)o2)sc(C)c1C` the value was -12.6%. As to `CC1=CCC2C(=O)N(c3ccc(C)cc3)C(=O)C2C1` (centres unmarked), the “hERG current change (%, negative = inhibition) at 10uM” value was -4.42%.

With `Cc1cc(C)n(CC(C)NCc2cn[nH]c2-c2cccc3ccccc23)n1` (centres unmarked), the “hERG current change (%, negative = inhibition) at 10uM” value is -43.9%. For `CCc1ccc2[nH]c(=O)c(CN(CCCO)C(=O)NCc3ccccc3)cc2c1` the value was -13%; for `CCCn1c(SCC(=O)NC2CCCCC2)nnc1-c1ccncc1`, 4.24%.

For `CSc1ccc(S(=O)(=O)Nc2ccc(NC(C)=O)cc2)cc1`, the “hERG current change (%, negative = inhibition) at 10uM” value was -11.3%. Regarding `Cc1ccc(OCCCCCCN2CCNCC2)c(Br)c1.O=C(O)C(=O)O`, the “hERG current change (%, negative = inhibition) at 10uM” value was -30.3%. For `Brc1ccc(C2=CSC3=NCCN23)cc1` the value was -29.5%; for `COc1ccc2oc(C(=O)OCC(=O)N3CCC(C)CC3)c(C)c2c1`, -0.112%.

For the molecule `CCOC(=O)c1ccc2nc(NC(=O)c3ccco3)sc2c1`, the “hERG current change (%, negative = inhibition) at 10uM” value came out at 9.53%.

On to `CN1CCN(CC(=O)C23CC4CC(CC(C4)C2)C3)CC1.Cl`, for which the “hERG current change (%, negative = inhibition) at 10uM” value is reported as -5.5%. For `Cc1[nH]c2ccccc2c1-c1nc2ccccc2[nH]c1=O` the value was 16.6%; for `COCCCn1c(=O)c2sccc2n2c(CCCC(=O)NCC3CCCO3)nnc12` (centres unmarked), 15.7%. For `CN(Cc1ccccc1)C(=O)c1ncn(Cc2ccccc2)c1C(=O)N(C)Cc1ccccc1`, the “hERG current change (%, negative = inhibition) at 10uM” value was -38.9%.

`COc1ccc(N2C(=NC(=O)CC3CCCCC3)SC3CS(=O)(=O)CC32)cc1` (centres unmarked): the “hERG current change (%, negative = inhibition) at 10uM” value stood at 19.5%. With `Cn1ncc(Cl)c1C(=O)N1CCN(C23CC4CC(CC(C4)C2)C3)CC1` the figure was -28.9%; with `COC(=O)[C@H](c1ccccc1Cl)N1CCc2sccc2C1`, 8%; with `O=C(N/N=C/c1ccco1)C1COc2ccccc2O1` (centres unmarked), -8.58%. With `Cc1nc2ccc(S(=O)(=O)NCC(=O)N(C)Cc3ccccc3)cc2s1` the figure was 17.8%; with `Cc1ccc(N=Cc2ccc[nH]2)c(O)c1`, 8.49%. For the molecule `CCOc1ccc(CNC(=O)CCS(=O)(=O)c2ccc3c(c2)oc(=O)n3C)cc1`, the “hERG current change (%, negative = inhibition) at 10uM” value was found to be 18.4%.

`CCOc1ccc(N(CC(=O)NC2CCCCCC2)S(=O)(=O)c2ccccc2)cc1`: the “hERG current change (%, negative = inhibition) at 10uM” value was -5.41%. With `CCc1nc2sc3c(=O)n(N)cnc3c2c2c1COC(C)(C)C2` the figure was 5.96%.

`CCCS(=O)(=O)c1c(S(=O)(=O)CCC)c2cc(-c3ccncc3)ccn2c1C(=O)OC`: the “hERG current change (%, negative = inhibition) at 10uM” value is -50.2%. For `CCn1c(SCC(=O)NNC(=O)c2ccc(C)cc2)nnc1-c1ccncc1` the value was -0.879%.

Take `COc1ccc(OC)c(-c2cc(C(=O)NCCN3CCOCC3)no2)c1`: the “hERG current change (%, negative = inhibition) at 10uM” value was -5%. On to `O=c1c2ccccc2oc2nc3n(c(=O)c12)CCCS3`, for which the “hERG current change (%, negative = inhibition) at 10uM” value is listed as -8.62%. For `O=C(CSc1cn(CCNC(=O)c2cccs2)c2ccccc12)NC1CCCCC1` the value was -18.4%; for `Cc1ccc(S(=O)(=O)N2CCN(C(=O)CN3C(=O)CNC3=O)CC2)cc1`, 2.55%. With `O=C1/C(=C/c2cccnc2)SC(=S)N1N1CCOCC1` the figure was 5.68%; with `O=C(Nc1ccccc1)NC1CCN(Cc2ccccc2)CC1`, -39.4%. `CC(=O)c1ccc(N2CCN(c3ncccn3)CC2)c([N+](=O)[O-])c1`: the “hERG current change (%, negative = inhibition) at 10uM” value was -32.5%.

As to `O=C(C1CCCN(c2ncccn2)C1)N1CCc2ccccc21` (centres unmarked), the “hERG current change (%, negative = inhibition) at 10uM” value is -9.4%. For `Cc1cccc(NS(=O)(=O)c2ccc(C)c(C(=O)NCc3ccncc3)c2)c1` the value was -13.6%; for `CCn1c(SCc2nc3sc(C(=O)O)c(C)c3c(=O)[nH]2)nnc1-c1ccc(Cl)cc1`, 6.23%.

For the molecule `Cn1c(SCc2ccc([N+](=O)[O-])cc2)nnc1-c1ccncc1`, the “hERG current change (%, negative = inhibition) at 10uM” value is listed as -52%.

On to `O=C(Cn1cnc2cc([N+](=O)[O-])ccc2c1=O)Nc1ccc(N2CCOCC2)cc1`, for which the “hERG current change (%, negative = inhibition) at 10uM” value is 0.511%.

For `CC(C)NS(=O)(=O)c1ccc(CCC(=O)Nc2cc(Cl)ccc2Oc2ccccc2)cc1`, the “hERG current change (%, negative = inhibition) at 10uM” value is 3.35%. With `COc1cc(CC(NC(C)=O)C(=O)NC2CCN(C(=O)c3cc(OC)c(OC)c(OC)c3)CC2)cc(OC)c1` (centres unmarked) the figure was -7.91%. With `Cc1occc(=O)c1OC(=O)Nc1ccc(Cl)c(Cl)c1`, the “hERG current change (%, negative = inhibition) at 10uM” value amounted to 12.7%.

As for `COC(=O)C[C@H]1c2cc(C(F)(F)F)ccc2S(=O)(=O)N1C1CCCCC1`, the “hERG current change (%, negative = inhibition) at 10uM” value is reported as -4.46%. As to `O=C(NS(=O)(=O)c1ccc(Cl)s1)c1ccccc1`, the “hERG current change (%, negative = inhibition) at 10uM” value was 20.1%. With `CCOc1ccc(C(C)=O)cc1COC(=O)c1ccc2c(c1)NC(=O)CS2`, the “hERG current change (%, negative = inhibition) at 10uM” value was -7.29%.

In the case of `O=C(CCCN1C(=O)/C(=C/c2ccccc2Cl)SC1=S)Nc1ccccn1`, the “hERG current change (%, negative = inhibition) at 10uM” value came out at 2.72%.

In the case of `COC(=O)Nc1ccc(S(=O)(=O)N2CCCCCC2)cc1`, the “hERG current change (%, negative = inhibition) at 10uM” value was determined as 9.82%.
